Out of some 150,000 compounds screened, about 540 (0.36%) showed an effect of 50% or more. This is one part of the list.
System: Plasmodium falciparum
Test: Primary screen in NF54 nanoGlo assay, in single point, at 2uM, 72h; a lower Z score goes with more inhibition
Type: functional, Erythrocyte
Conditions: timepoint 72 hour

| Compound | % Inhibition | Z score |
| --- | --- | --- |
| C[C@@H](CNC(=O)N(C)CC1(O)CCOCC1)c1cccs1 | -1% | 0.07 |
| COc1cccc2c1CCc1c(C(=O)N[C@H]3CCS(=O)(=O)C3)n[nH]c1-2 | -5% | 0.66 |
| O=C(O)Cn1nc(COc2cccc(Cl)c2)nc1C1CCC1 | -1% | 0.13 |
| CC(C1Cc2ccccc2O1)N(C)C(=O)c1ncoc1C1CC1 (stereo not given) | 2% | -0.22 |
| Cc1ccc2[nH]cc(-c3cncc(C(=O)O)c3)c2c1 | -8% | 1.1 |
| O=C(Cn1ncc(-c2ccccc2)nc1=O)N1CCc2ccccc21 | 15% | -1.87 |
| CCCOc1cccc(-c2nc(=O)c(CCC(=O)N3CCCC3)n[nH]2)c1 | -7% | 1.05 |
| COc1cccnc1NC(=O)NC1CC(OC)(OC)C1 | -8% | 1.58 |
| CC(C)CC[C@@]1(C2CCN(C(=O)c3sccc3Cl)CC2)NC(=O)N(Cc2ccccn2)C1=O | -3% | 0.63 |
| Cn1c(=O)sc2cc(NC(=O)c3ccc(Br)cc3)ccc21 | 4% | -0.48 |
| Nc1nc(N[C@H]2C[C@@H]2c2ccccc2)c2cc(C(=O)O)ccc2n1 | -3% | 0.54 |
| COCC1(C(=O)Nc2cnc(C(C)C)nc2)CCC1 | -10% | 1.55 |
| Cc1ccc(-c2nc(CN(C)Cc3nnc(C)o3)c(C)o2)o1 | -9% | 1.7 |
| CS(=O)(=O)N1CCN(C(=O)COC(=O)c2ccc(-c3ccccc3)cc2)CC1 | -4% | 0.75 |
| CCc1cc(C(=O)N(Cc2ccc(C)s2)C(C)C)n(C)n1 | -6% | 0.7 |
| O=C(NC1CC1)c1cccc(-n2ccc3ccccc32)c1 | -1% | 0.23 |
| Fc1ccc(-c2nc(-c3c[nH]c4ccc(Br)cc34)[nH]c2-c2ccccc2)cc1 | -16% | 1.76 |
| Cn1nnc2c(=O)n(CC(=O)Nc3ccc(F)c(Cl)c3)cnc21 | -4% | 0.6 |
| Cc1cncc(NC(=O)C(=O)N(CC(C)C)CC(C)(C)C)c1 | -1% | 0.25 |
| Cc1cc(CN2CCCN(C(=O)Nc3cccc4c3CCCC4)CC2)no1 | 0% | -0.02 |
| O=C1CCCC(=O)C12Cc1ccc(Cl)cc1N1CCCCC[C@H]12 | 7% | -1.31 |
| CC(=O)NC1CCN(Cc2cnc(C3CCCC3)s2)CC1 | -11% | 1.13 |
| Cc1ccccc1C(=O)Nn1ccc2c(cnc3c(-c4ccc(F)cc4)cnn32)c1=O | 6% | -0.79 |
| O=C(NC1CCC(c2ccc(F)cc2)C1)C1=COCCO1 (stereo not given) | -13% | 1.8 |
| CCOc1cccc(CN(CCO)Cc2ccc(CN(C)S(C)(=O)=O)o2)c1 | -10% | 1.92 |
| Cc1ccc(S(=O)(=O)N2C[C@@H]3CC[C@H]2CN(C(=O)N(C)C)C3)s1 | -5% | 0.75 |
| Cc1nnc(CNC2CC(OC(C)C)C2(C)C)s1 (stereo not given) | -2% | 0.24 |
| CCn1nccc1CN(C)C(=O)c1cc(C)c(C)s1 | 35% | -0.61 |

| Compound | % Inhibition | Z score |
| --- | --- | --- |
| CC[C@@H](C(=O)NCc1ccc2c(c1)CCN2C(=O)c1ccccc1)N1C(=O)COc2ccccc21 | -4% | 0.67 |
| NC(=O)NC1CCN(C(=O)[C@]2(c3ccccc3)CCCO2)CC1 | 0% | 0.02 |
| CC[C@@H]1CCO[C@@H]1C(=O)NS(=O)(=O)c1cc(Cl)cc(Br)c1 | -3% | 0.45 |
| CN1C(=O)NC2(CCN(CC(=O)Nc3ccc4c(c3)OCO4)CC2)C1=O | -2% | 0.42 |
| O=C1CCCc2nc(N3CCOCC3)ncc21 | 3% | -0.38 |
| CC(C)[C@H]1CN(S(=O)(=O)N(C)Cc2ccccc2)C[C@@H]1N(C)C | -8% | 1.1 |
| C[C@]1(O)CCN(Cc2ccccc2-c2ccco2)C[C@@H]1O | -21% | 1.97 |
| COC[C@@]12CN(C(C)=O)CC[C@@H]1CN(C(=O)c1ccc(C)s1)C2 | -17% | 1.96 |
| CC(C)CN1C(=O)N(Cc2ccccc2)C2(CCNCC2)C1=O | 5% | -0.69 |
| CCCNC(=O)c1cc(-c2ccc(Cl)cc2)cn1C | 14% | -2.24 |
| CC1CN(C(C(=O)N2CCC(C(C)NC(=O)OC(C)(C)C)C2)C(C)C)CC(C)O1 (stereo not given) | 12% | -1.41 |
| COC[C@H](NC(=O)Nc1cnn(-c2ccccn2)c1)c1ccco1 | 4% | -0.45 |
| CCOC(=O)N1CCC(NCc2cc(Br)c3c(c2)OCO3)CC1 | -18% | 2.27 |
| NC(=O)c1nc(CNC(=O)C[C@@H](c2ccccc2)c2ccccc2F)no1 | -9% | 1.56 |
| NC(=O)CN1C(=O)[C@]2(CC(=O)Nc3c2cnn3-c2ccccc2)c2ccccc21 | -2% | 0.22 |
| CCCc1nc(CN2CCOc3ccccc3[C@@H]2C(=O)O)no1 | 6% | -1.09 |
| C#Cc1cccc(NC(=O)N(CCOC)Cc2ccc(C)o2)c1 | 5% | -0.67 |
| CC1CCCC(OC(C)C(=O)NC(C)C(=O)Cc2ccccc2)C1 (stereo not given) | 2% | -0.3 |
| CC(Cn1cncn1)NC(=O)N1CCC[C@H]1C(F)F (stereo not given in full) | 1% | -0.12 |
| CC(c1nc(C2CC2)no1)N1CCCC1Cn1cncn1 (stereo not given) | 1% | -0.27 |
| O=S(=O)(NCC1(Cn2ccnc2)CC1)c1cccnc1 | 4% | -0.75 |
| COc1cccnc1N1CC[C@H](O)[C@@H](C2CCCC2)C1 | -5% | 0.98 |
| CS(=O)(=O)NC[C@H](O)c1ccc(-c2ccco2)cc1 | 2% | -0.28 |
| C=CCNC(=O)N1Cc2cccc(F)c2C1 | -14% | 1.37 |
| Cc1cc(F)cc(NC(=O)N2C[C@@H]3[C@@H](CN(C)C)[C@@H]3C2)c1 | 6% | -0.84 |
| Cc1cc(C(=O)N2CCC(C(N)=O)CC2)c(C)n1C1CC1 | -8% | 0.66 |
| Cc1nn(CC(=O)Nc2nn(C)c3ccccc23)c(C)c1-c1ccncc1 | -15% | 2.26 |
